Among the test systems are SK-MEL-5 melanoma; MALME-3M melanoma; UACC-257 melanoma; MDA-N.
Experiment in all cases: inhibition of tumour cell growth, NCI panel, 48 h

For one compound, TGI results are on record in PubChem BioAssay (NCI).

Structures are written as SMILES.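 In this assay, cells in 96-well plates receive the compound at five concentrations for 48 hours. Endpoints are linearly interpolated between the surrounding concentrations. At the TGI there is no net growth.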 Certain results were filed several times, with different values. This list holds those alone. An entry can have further records. Records of one sample usually come from different ranges of test concentrations, not given here; some values may only mark the edge of a range.

For the compound `C/C(=N\NC(=S)N(C)C)c1ccccn1`, the TGI with SK-MEL-5 melanoma was 79.9 nM and 5.65 µM; in the test with MALME-3M melanoma, 531 nM and 15 µM; in the test with UACC-257 melanoma, 137 nM and 2.17 µM; with MDA-N, 602 nM and 17.1 µM.
